Data on 94 sequences can be found in publication PMC10668032.

This is one part of the list. At the low end of the ranking the order means little.

The test addresses SIX1 homeodomain (reference allele) (UniProt Q15475). The test is described as follows: universal protein binding microarray. To be noted: Universal all-10-mer PBM (8x60K, AMADID 030236), 300 nM GST-tagged protein, Alexa Fluor 488 anti-GST; buffer, salt, pH and temperature not stated; high values mean tight binding; most listed sequences are background and not binding sites; double strand, one strand shown.
AAGAGAAG: the binding signal is -0.0906 E-score.

For CATCGAGC, the binding signal came to 0.006 E-score.

Regarding AGGCAGCC, the binding signal is -0.0571 E-score.

Turning to ACAAGCCT, the binding signal is -0.281 E-score.

Consider CCCCACCC, for which the binding signal worked out at 0.254 E-score.

As to ACATTTTA, the binding signal was -0.202 E-score.

In the case of AATTAAGT, the binding signal was -0.107 E-score.

As to AGTCTCTA, the binding signal was -0.257 E-score.

GTCGCGGA: the binding signal is 0.0563 E-score.

ATGGTAAA: the binding signal is -0.22 E-score.

Turning to ACCAATTC, the binding signal was -0.115 E-score.

As for TAACGCTA, the binding signal was 0.0239 E-score.

ACCAACGG: the binding signal is -0.189 E-score.

Consider CCTAGAGG, for which the binding signal was 0.0822 E-score.

AACATCAC: the binding signal was -0.117 E-score.

Turning to GAAATATC, the binding signal came to 0.262 E-score.

GAGAATTA: the binding signal was -0.261 E-score.

For the sequence AGTTGCCC, the binding signal is -0.197 E-score.

For the sequence CCAATGGA, the binding signal was found to be 0.027 E-score.

Take GCATTCGA: the binding signal worked out at 0.0686 E-score.

On to ATTTCGGG, for which the binding signal was -0.0974 E-score.

Consider CAGACATC, for which the binding signal was -0.0558 E-score.

Consider ACAAAATC, for which the binding signal was -0.183 E-score.

As for CAGTTTCG, the binding signal was -0.0174 E-score.

In the case of GACAGTTA, the binding signal was -0.0705 E-score.

CAACAGCA: the binding signal is -0.107 E-score.

Take ACTACGAG: the binding signal was -0.00238 E-score.

Take TACATCTA: the binding signal stood at 0.141 E-score.

With TAAGCGAA, the binding signal is -0.198 E-score.

Regarding ATTGCTAG, the binding signal was -0.165 E-score.

With ATCCTTTC, the binding signal came to 0.212 E-score.

For the sequence CGTATACC, the binding signal worked out at 0.367 E-score.

Turning to GGGAACAC, the binding signal is -0.0861 E-score.

In the case of CATGTCCG, the binding signal was -0.204 E-score.

Turning to GTTCCCCA, the binding signal was -0.168 E-score.

For the sequence CCGTGGTA, the binding signal was determined as 0.113 E-score.

Regarding GAATGTCC, the binding signal was -0.115 E-score.

CTACATGC: the binding signal was -0.00164 E-score.

Take ACTGTTCC: the binding signal is -0.331 E-score.

On to GTCCCCCA, for which the binding signal is -0.237 E-score.

For the sequence CGAACAGA, the binding signal is -0.0625 E-score.

Regarding AACGTACT, the binding signal is -0.202 E-score.

For the sequence AAGTTCTG, the binding signal is -0.297 E-score.

CTAGCACC: the binding signal is -0.0732 E-score.

Regarding ATCCTAAC, the binding signal came to 0.163 E-score.

Regarding ATTCGGCA, the binding signal worked out at 0.0244 E-score.

AGACAGAA: the binding signal was -0.095 E-score.

On to CTACCAAC, for which the binding signal is -0.148 E-score.

Regarding CACTACTC, the binding signal amounted to 0.0699 E-score.

Turning to CGCATACG, the binding signal was -0.0416 E-score.

For GCCAGATA, the binding signal amounted to 0.213 E-score.

As to TAAAGATA, the binding signal came to 0.167 E-score.

On to ACGGTTGA, for which the binding signal was -0.25 E-score.

As for CCACGCAA, the binding signal was 0.0948 E-score.

In the case of GCTCAAAC, the binding signal was determined as 0.0222 E-score.

As for CCGTCGAG, the binding signal was 0.121 E-score.

Take TAACCCTA: the binding signal was -0.00804 E-score.

With AACTCCTC, the binding signal was -0.0664 E-score.

Consider ATCCATCC, for which the binding signal turned out to be 0.343 E-score.

As to AGCTCACG, the binding signal was -0.102 E-score.

For the sequence CTAACAAC, the binding signal was -0.124 E-score.

For the sequence GACGACGC, the binding signal was -0.258 E-score.

As to CACCTGTA, the binding signal turned out to be 0.0186 E-score.

Turning to CTGATAAC, the binding signal was found to be 0.051 E-score.

Consider ACGGGTGA, for which the binding signal is 0.12 E-score.

Consider CAATAAGA, for which the binding signal turned out to be 0.073 E-score.

As to CAAGCTTC, the binding signal is -0.211 E-score.

Turning to CATATTTC, the binding signal was -0.0131 E-score.

As for CTCTATAC, the binding signal is 0.112 E-score.

Consider ATGGCCTC, for which the binding signal is 0.0204 E-score.

Take ACGTCGAA: the binding signal is -0.278 E-score.

As for AACTTTCC, the binding signal is -0.205 E-score.

In the case of GAACGGAC, the binding signal was -0.161 E-score.

In the case of AACATTAC, the binding signal is -0.233 E-score.

Regarding AAATTTGA, the binding signal turned out to be 0.0735 E-score.

For the sequence AGTGACAC, the binding signal is 0.354 E-score.

Consider AAATATTA, for which the binding signal was -0.0387 E-score.

For CCTACAGG, the binding signal is -0.125 E-score.

In the case of GATCCGAC, the binding signal turned out to be 0.389 E-score.

Take ACCTCACA: the binding signal is -0.0507 E-score.

Turning to GAGGCGAC, the binding signal is -0.19 E-score.

With TCGCCTCA, the binding signal was -0.105 E-score.

As to ACTAACTA, the binding signal was -0.0141 E-score.

For the sequence AGTATTTC, the binding signal was determined as 0.107 E-score.

In the case of CTCCTAAC, the binding signal was -0.00143 E-score.

As to AAGTTGGG, the binding signal was -0.14 E-score.

Regarding GGGGTTAC, the binding signal is -0.0675 E-score.

In the case of CGTGGTGA, the binding signal was -0.0689 E-score.

AACTGCTA: the binding signal is -0.11 E-score.

Consider AGGGTACT, for which the binding signal is -0.0162 E-score.

On to AAAGCTCT, for which the binding signal is -0.166 E-score.

As to ATAAGACA, the binding signal was 0.0395 E-score.

In the case of AATGGTCC, the binding signal was -0.194 E-score.

With CGAATGGA, the binding signal is 0.0964 E-score.
